Data reported in PubChem BioAssay.
The inconclusive results got no clear call from the source; some entries with a clear call stand among them for comparison. Activity calls are given as the source filed them.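 The calls were made as follows, unless noted: active = thallium flux slope beyond 3 SD from same-plate DMSO control mean in most replicates, usually higher, sometimes lower; inconclusive = repeat tests gave conflicting results; inactive = no significant difference from controls in most replicates.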

Columns and labels:
[1] = biological target: Solute carrier family 12 member 5 (Homo sapiens) (UniProt Q9H2X9); test: retest of KCC2 transport modulation, ouabain-free – cell-based, HEK293 KCC2, thallium flux, FluoZin2, secondary assay 2, confirmation (AID 1715;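 active = thallium flux slope more than 3 SD above or below the plate's solvent-only control mean, mostly below; inconclusive = the two repeat wells disagreed; inactive = no significant shift from solvent-only controls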;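 also: raw slope with 0.1% DMSO as baseline and bumetanide as block control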); conditions: HEK293-KCC2, thallium flux FluoZin2 fluorescence; at 10 µM; actives lie on both sides; F/F0 rise rate, 10–20 s post-thallium
UniProt Q9H2X9, sequence (Q9H2X9 whole entry, looked up): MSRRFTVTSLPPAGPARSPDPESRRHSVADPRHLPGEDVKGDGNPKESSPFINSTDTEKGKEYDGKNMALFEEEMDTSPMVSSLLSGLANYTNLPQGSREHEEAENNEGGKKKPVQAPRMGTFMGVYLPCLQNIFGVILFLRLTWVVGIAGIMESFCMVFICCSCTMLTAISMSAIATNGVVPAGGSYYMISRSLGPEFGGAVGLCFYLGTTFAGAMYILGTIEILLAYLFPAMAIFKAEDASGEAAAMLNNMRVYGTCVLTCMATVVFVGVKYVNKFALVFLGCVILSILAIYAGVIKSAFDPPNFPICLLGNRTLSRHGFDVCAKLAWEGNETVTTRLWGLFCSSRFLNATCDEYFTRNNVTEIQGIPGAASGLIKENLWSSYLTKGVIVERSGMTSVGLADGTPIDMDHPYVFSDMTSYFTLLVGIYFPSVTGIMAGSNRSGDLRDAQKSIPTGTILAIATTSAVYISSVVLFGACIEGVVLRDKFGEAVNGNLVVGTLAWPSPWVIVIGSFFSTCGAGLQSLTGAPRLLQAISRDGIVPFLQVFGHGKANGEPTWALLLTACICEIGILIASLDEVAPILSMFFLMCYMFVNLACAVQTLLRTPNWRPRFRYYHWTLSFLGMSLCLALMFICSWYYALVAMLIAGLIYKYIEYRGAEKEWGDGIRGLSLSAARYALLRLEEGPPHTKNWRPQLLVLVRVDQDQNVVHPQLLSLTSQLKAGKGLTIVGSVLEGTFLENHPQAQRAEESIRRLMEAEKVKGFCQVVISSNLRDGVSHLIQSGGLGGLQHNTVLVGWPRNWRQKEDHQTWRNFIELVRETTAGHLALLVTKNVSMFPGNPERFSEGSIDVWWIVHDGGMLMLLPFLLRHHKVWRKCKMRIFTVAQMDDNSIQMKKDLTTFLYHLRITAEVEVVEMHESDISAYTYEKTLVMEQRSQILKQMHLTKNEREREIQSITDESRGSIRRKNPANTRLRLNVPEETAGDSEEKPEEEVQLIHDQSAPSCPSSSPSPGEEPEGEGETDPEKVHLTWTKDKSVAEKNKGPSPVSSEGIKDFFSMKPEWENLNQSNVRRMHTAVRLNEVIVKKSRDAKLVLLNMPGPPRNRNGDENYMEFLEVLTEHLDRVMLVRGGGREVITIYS

[2] = biological target: Solute carrier family 12 member 5 (Homo sapiens) (UniProt Q9H2X9); test: modulation of KCC2 thallium flux in HEK cells – cell-based, ouabain, retest, confirmation (AID 1717); conditions: HEK293-KCC2, thallium flux FluoZin2 fluorescence, at 10 µM, bidirectional: low = inhibitor, high = activator;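 also: slope of initial-normalized fluorescence between seconds 10 and 20 after thallium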

SMILES | normalized thallium flux [1] | raw Tl+ flux slope (below DMSO = inhibition, above = activation) [2]
Cc1nc(C(=O)NNC(=O)c2ccccc2)c(C(F)(F)F)o1 | inconclusive: 0.0256 | inactive: 0.0193
CCCCCCCC(=O)NNC(=O)c1c(O)c2ccccc2n(CC)c1=O | inactive: 0.0327 | inconclusive: 0.0245
N#C/C(=C\c1cn(-c2ccccc2)nc1-c1cccnc1)c1nnc2n1CCCCC2 | active: 0.0236 | inconclusive: 0.0184
S=c1[nH]nc(CSCc2ccccc2Cl)n1C1CCCCC1 | inconclusive: 0.0373 | active: 0.0275
CS(=O)(=O)N(CC(=O)N1CCN(c2ccc(F)cc2)CC1)C1CCCCC1 | inconclusive: 0.026 | active: 0.0176
O=c1c2ccccc2nc(-c2ccc(Cl)c(Cl)c2)n1O | inconclusive: 0.0376 | active: 0.0829
CCc1ccc(-c2nc(CS(=O)CC(=O)NCc3cccnc3)c(C)o2)cc1 (configuration not stated) | inconclusive: 0.0261 | inconclusive: 0.0159
Fc1ccc(NC(=S)Nc2ccc(Cl)cc2Cl)cc1 | inactive: 0.0348 | inconclusive: 0.0406
CCCOc1ccc(C(=O)NC(=S)NNC(=O)c2c(-c3ccccc3)noc2C)cc1 | inconclusive: 0.0426 | active: 0.0398
O=C1OCCC1Sc1ncnc2sc3c(c12)CCC3 (configuration not stated) | inconclusive: 0.0378 | inconclusive: 0.0261
O=C(CSc1nnnn1Cc1ccccc1)Nc1ccc2c(c1)OCCO2 | inconclusive: 0.0272 | inconclusive: 0.0165
CC12CCC(C(=O)Nc3nc4ccc(Br)cc4s3)(OC1=O)C2(C)C (configuration not stated) | inconclusive: 0.0383 | active: 0.0349
S=c1[nH]nc(COc2ccc(Cl)cc2)n1C1CCCCC1 | inactive: 0.0327 | inconclusive: 0.025
O=C(O)CC/C(=C\c1cccc(NC(=O)c2ccccc2Cl)c1)c1nc2ccccc2s1 | inconclusive: 0.0271 | inconclusive: 0.0162
COc1ccc(N(CC(=O)N2CCC(Cc3ccccc3)CC2)S(C)(=O)=O)cc1 | inconclusive: 0.0276 | active: 0.0153
CCN(CCCNC(=O)CN(C)S(=O)(=O)c1cccc2nsnc12)c1ccccc1 | inconclusive: 0.0261 | inactive: 0.0159

SMILES | normalized thallium flux [1] | raw Tl+ flux slope (below DMSO = inhibition, above = activation) [2]
Cn1c(CSc2nc3ccccc3s2)nc2ccccc21 | active: 0.0244 | inconclusive: 0.0172
O=C1CN(c2nc(-c3cccs3)nc3sc4c(c23)CCCC4)CCN1 | inactive: 0.0304 | inconclusive: 0.0231
CC(C)(C)c1ccc(-c2n[nH]c(=S)n2/N=C/c2ccncc2)cc1 | inactive: 0.0324 | inconclusive: 0.0292
C/C(=N\NC(=O)c1ccc(Br)cc1)C1C(=O)c2ccccc2C1=O | active: 0.0228 | inconclusive: 0.017
O=C(Nc1nnc(-c2ccco2)o1)c1ccc(Cl)cc1 | inconclusive: 0.034 | active: 0.0604
CCOc1ccc(/C=C2\SC(=S)NC2=O)cc1OC | inconclusive: 0.0275 | inactive: 0.0227
C[C@H]1CC[C@H]2C(=O)N3[C@H](c4cccc(N5CCCC5=O)c4)[C@@H](C)CC[C@H]3C(=O)N2[C@@H]1c1cccc(N2CCCC2=O)c1 | inconclusive: 0.0263 | inactive: 0.0178
COC(=O)c1cc(Sc2cccc(Cl)c2Cl)ccn1 | inconclusive: 0.0272 | active: 0.0142
O=C(CCC(=O)OCC(F)(F)C(F)F)Nc1ccc(Cl)cc1 | inconclusive: 0.0269 | inactive: 0.0178
O=C(CN1CCN(S(=O)(=O)c2ccccc2)CC1)Nc1ccc2c(c1)CCC2 | inconclusive: 0.0274 | inactive: 0.0175
Cc1cc(Br)ccc1OCC(=O)NNC(=O)c1cnccn1 | inconclusive: 0.0343 | active: 0.0281
CSc1cccc(NC(=O)C2CCN(S(=O)(=O)c3ccc(F)cc3)CC2)c1 | inactive: 0.0341 | inconclusive: 0.0173
Cc1ccc(NC(=O)CCCSc2ccccc2)cc1S(=O)(=O)N1CCOCC1 | inconclusive: 0.0267 | inactive: 0.0155
O=C(Cn1nnc(-c2ccccc2-n2cnnn2)n1)NCc1ccccc1 | inconclusive: 0.0273 | inactive: 0.0186
Cc1ccc(-n2[nH]c(C)c(C=Nc3ccc(C)cn3)c2=O)cc1 | inactive: 0.0334 | inconclusive: 0.0236
